Among the data in publication PMC12820563, “FoxP3 forms a head-to-head dimer in vivo and stabilizes its multimerization on adjacent microsatellites” are binding signal values, retold here.

Some of the results follow.

The target in this assay is T1, MBP-FoxP1dN (Mus musculus, UniProt P58462 326-579).
T1 sequence: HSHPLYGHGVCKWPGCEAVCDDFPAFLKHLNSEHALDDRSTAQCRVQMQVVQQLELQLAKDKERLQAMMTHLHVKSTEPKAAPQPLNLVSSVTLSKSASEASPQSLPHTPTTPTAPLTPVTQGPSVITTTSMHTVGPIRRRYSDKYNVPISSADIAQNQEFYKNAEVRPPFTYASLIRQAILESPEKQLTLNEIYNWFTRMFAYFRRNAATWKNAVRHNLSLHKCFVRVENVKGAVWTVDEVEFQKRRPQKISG
Kind of assay: PD-seq (MBP pull-down with sequencing); 20 mM Tris-HCl pH 7.5, 100 mM NaCl, 1.5 mM MgCl2, 0.4 uM protein, 0.1 uM dsDNA library, 30 min, room temperature, amylose pull-down; high values mean tight binding. The conditions noted are these: protein: recombinant; tags: His6-MBP; chain copies: 2; dsDNA, one strand shown. The gist of the method: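 A fragment of mouse FoxP3 or FoxP1 without its N-terminus, carrying a His6-MBP tag and produced in E. coli, was combined at 0.4 µM with a 0.1 µM degenerate double-stranded DNA library filled in with Klenow. The mixture sat for 30 min at room temperature in Tris pH 7.5 buffer containing NaCl and MgCl2. Protein–DNA complexes were captured on amylose resin, washed three times, and the DNA was freed with proteinase K, barcoded by PCR and sequenced on Illumina. Binding is expressed as reads-per-million enrichment of pull-down over input, with replicates pooled.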
For the sequence “GATGATTGTTCTCCCAGCTGATGAATTAGTCACCTCGAGTAAACAAATTTTCCTAATCTTTCTGTTCAAGCGCCATCTAC”, the binding signal is 0.877 RPM ratio (pull-down/input).

Turning to “GATGATTGTTCTCCCAGCTGATGAATTGCCCACATCGAGTAAACAAATTTTCCTAATCTTTCTGTTCAAGCGCCATCTAC”, the binding signal is 1.07 RPM ratio (pull-down/input).

On to “GATGATTGTTCTCCCAGCTGATGAATTATAGCCATCGAGTAAACAAATTTTCCTAATCTTTCTGTTCAAGCGCCATCTAC”, for which the binding signal was 0.989 RPM ratio (pull-down/input).

Regarding “GATGATTGTTCTCCCAGCTGATGAATTCCCTGACTCGAGTAAACAAATTTTCCTAATCTTTCTGTTCAAGCGCCATCTAC”, the binding signal is 0.823 RPM ratio (pull-down/input).

With “GATGATTGTTCTCCCAGCTGATGAATTGGGCTAATCGAGTAAACAAATTTTCCTAATCTTTCTGTTCAAGCGCCATCTAC”, the binding signal was 0.925 RPM ratio (pull-down/input).

As for “GATGATTGTTCTCCCAGCTGATGAATTTTGCGAGTCGAGTAAACAAATTTTCCTAATCTTTCTGTTCAAGCGCCATCTAC”, the binding signal is 0.866 RPM ratio (pull-down/input).

With “GATGATTGTTCTCCCAGCTGATGAATTTACTATGTCGAGTAAACAAATTTTCCTAATCTTTCTGTTCAAGCGCCATCTAC”, the binding signal is 1.26 RPM ratio (pull-down/input).

Regarding “GATGATTGTTCTCCCAGCTGATGAATTGTCTATATCGAGTAAACAAATTTTCCTAATCTTTCTGTTCAAGCGCCATCTAC”, the binding signal is 1.18 RPM ratio (pull-down/input).

Turning to “GATGATTGTTCTCCCAGCTGATGAATTGGTATGATCGAGTAAACAAATTTTCCTAATCTTTCTGTTCAAGCGCCATCTAC”, the binding signal is 1.01 RPM ratio (pull-down/input).

Regarding “GATGATTGTTCTCCCAGCTGATGAATTACGGGCTTCGAGTAAACAAATTTTCCTAATCTTTCTGTTCAAGCGCCATCTAC”, the binding signal is 0.885 RPM ratio (pull-down/input).

As to “GATGATTGTTCTCCCAGCTGATGAATTTAGCGCATCGAGTAAACAAATTTTCCTAATCTTTCTGTTCAAGCGCCATCTAC”, the binding signal was 1.21 RPM ratio (pull-down/input).

On to “GATGATTGTTCTCCCAGCTGATGAATTTCGTAGATCGAGTAAACAAATTTTCCTAATCTTTCTGTTCAAGCGCCATCTAC”, for which the binding signal is 0.765 RPM ratio (pull-down/input).

As for “GATGATTGTTCTCCCAGCTGATGAATTGACGGGCTCGAGTAAACAAATTTTCCTAATCTTTCTGTTCAAGCGCCATCTAC”, the binding signal was 0.882 RPM ratio (pull-down/input).

For “GATGATTGTTCTCCCAGCTGATGAATTGCGACAGTCGAGTAAACAAATTTTCCTAATCTTTCTGTTCAAGCGCCATCTAC”, the binding signal is 0.958 RPM ratio (pull-down/input).

On to “GATGATTGTTCTCCCAGCTGATGAATTGCGGGGATCGAGTAAACAAATTTTCCTAATCTTTCTGTTCAAGCGCCATCTAC”, for which the binding signal was 0.962 RPM ratio (pull-down/input).

For “GATGATTGTTCTCCCAGCTGATGAATTTTGTTCTTCGAGTAAACAAATTTTCCTAATCTTTCTGTTCAAGCGCCATCTAC”, the binding signal is 0.931 RPM ratio (pull-down/input).

Regarding “GATGATTGTTCTCCCAGCTGATGAATTTATAATCTCGAGTAAACAAATTTTCCTAATCTTTCTGTTCAAGCGCCATCTAC”, the binding signal was 1.03 RPM ratio (pull-down/input).

In the case of “GATGATTGTTCTCCCAGCTGATGAATTTGAGGCGTCGAGTAAACAAATTTTCCTAATCTTTCTGTTCAAGCGCCATCTAC”, the binding signal was 0.89 RPM ratio (pull-down/input).

For the sequence “GATGATTGTTCTCCCAGCTGATGAATTCAGTCATTCGAGTAAACAAATTTTCCTAATCTTTCTGTTCAAGCGCCATCTAC”, the binding signal was 0.907 RPM ratio (pull-down/input).

For “GATGATTGTTCTCCCAGCTGATGAATTTTGTACATCGAGTAAACAAATTTTCCTAATCTTTCTGTTCAAGCGCCATCTAC”, the binding signal is 1.22 RPM ratio (pull-down/input).

For “GATGATTGTTCTCCCAGCTGATGAATTTTTGGCATCGAGTAAACAAATTTTCCTAATCTTTCTGTTCAAGCGCCATCTAC”, the binding signal was 1.09 RPM ratio (pull-down/input).

For the sequence “GATGATTGTTCTCCCAGCTGATGAATTCAAGCTCTCGAGTAAACAAATTTTCCTAATCTTTCTGTTCAAGCGCCATCTAC”, the binding signal was 0.854 RPM ratio (pull-down/input).

With “GATGATTGTTCTCCCAGCTGATGAATTTCATTGGTCGAGTAAACAAATTTTCCTAATCTTTCTGTTCAAGCGCCATCTAC”, the binding signal is 0.948 RPM ratio (pull-down/input).

Turning to “GATGATTGTTCTCCCAGCTGATGAATTACTATGGTCGAGTAAACAAATTTTCCTAATCTTTCTGTTCAAGCGCCATCTAC”, the binding signal is 0.956 RPM ratio (pull-down/input).

In the case of “GATGATTGTTCTCCCAGCTGATGAATTTGCAGACTCGAGTAAACAAATTTTCCTAATCTTTCTGTTCAAGCGCCATCTAC”, the binding signal is 0.892 RPM ratio (pull-down/input).

“GATGATTGTTCTCCCAGCTGATGAATTAGTTGGATCGAGTAAACAAATTTTCCTAATCTTTCTGTTCAAGCGCCATCTAC”: the binding signal is 0.875 RPM ratio (pull-down/input).

As to “GATGATTGTTCTCCCAGCTGATGAATTACATTAGTCGAGTAAACAAATTTTCCTAATCTTTCTGTTCAAGCGCCATCTAC”, the binding signal was 1.25 RPM ratio (pull-down/input).

For “GATGATTGTTCTCCCAGCTGATGAATTGAGGAATTCGAGTAAACAAATTTTCCTAATCTTTCTGTTCAAGCGCCATCTAC”, the binding signal is 0.824 RPM ratio (pull-down/input).

As to “GATGATTGTTCTCCCAGCTGATGAATTCACGCTGTCGAGTAAACAAATTTTCCTAATCTTTCTGTTCAAGCGCCATCTAC”, the binding signal is 0.895 RPM ratio (pull-down/input).

As for “GATGATTGTTCTCCCAGCTGATGAATTACACGCATCGAGTAAACAAATTTTCCTAATCTTTCTGTTCAAGCGCCATCTAC”, the binding signal is 1.3 RPM ratio (pull-down/input).

For “GATGATTGTTCTCCCAGCTGATGAATTGATTAGATCGAGTAAACAAATTTTCCTAATCTTTCTGTTCAAGCGCCATCTAC”, the binding signal is 1.06 RPM ratio (pull-down/input).
